Test results published in PubChem BioAssay AID485341 (National Center for Advancing Translational Sciences (NCATS), 2010).
Among all 330,000 compounds or so, about 1,700 (0.52%) were called active. The shares of active, inactive and inconclusive entries below differ from those in the screen. Calls follow the shape of the dose curve; as a rule, active = well fitted inhibition curve with a large enough effect; inconclusive = small, poorly fitted or top-dose-only effect; inactive = no such curve, though single readings can be large or run the other way. Potencies beside an inconclusive call are fits to weak or partial responses and may not hold up.

Target: Beta-lactamase (Escherichia coli (strain K12)) (UniProt P00811)
Assay: qHTS Inhibitors of AmpC Beta-Lactamase (assay without detergent); also: nearly all actives have a fitted effect of over 20% in size;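 as to activity change, negative = inhibition: plate controls were no compound for no effect and no enzyme for full effect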
Conditions: AmpC nitrocefin hydrolysis, absorbance 480 nm, 0.0001% Triton; activity change, negative = inhibition: at 57.1 µM (top of the series) unless noted
In short: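 AmpC (5.3 nM in the dispensed reagent) in 20 mM phosphate pH 7.0 with 0.01% (detergent screen) or 0.0001% Triton X-100 was preincubated with compounds for 15 min at room temperature. Nitrocefin was then added from an 800 uM solution, and hydrolysis was followed at 480 nm.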
Potency is read from the fitted curve at half-maximal effect; tags tell the direction and shape of the fitted curve.

Sequence of UniProt P00811 (P00811 whole entry, looked up): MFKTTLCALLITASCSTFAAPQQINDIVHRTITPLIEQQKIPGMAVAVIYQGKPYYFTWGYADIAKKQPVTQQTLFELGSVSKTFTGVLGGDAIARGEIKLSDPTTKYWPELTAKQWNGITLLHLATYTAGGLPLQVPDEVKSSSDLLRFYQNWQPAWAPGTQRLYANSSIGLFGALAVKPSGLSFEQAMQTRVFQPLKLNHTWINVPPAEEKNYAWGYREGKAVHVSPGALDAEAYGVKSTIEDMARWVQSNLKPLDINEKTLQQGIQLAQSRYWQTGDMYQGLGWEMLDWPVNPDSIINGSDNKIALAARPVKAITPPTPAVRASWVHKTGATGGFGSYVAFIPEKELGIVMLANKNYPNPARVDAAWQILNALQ

| SMILES | activity change, negative = inhibition | Potency |
| --- | --- | --- |
| O=C(CSc1nnc(-c2ccccc2Br)o1)Nc1cccc2ccccc12 | inactive: -43.6% |  |
| Cc1ccc(CSCCNC(=O)CSCc2ccc([N+](=O)[O-])cc2)cc1 |  | inconclusive: 1.26 µM [inhibitor, partial curve, poor fit] |
| O=C(O)C1=C(C(=O)Nc2ccc(F)c(Cl)c2)CCCC1 |  | inconclusive: 5.01 µM [inhibitor, single point] |
| CCN(/C=N/c1sc2c(c1C#N)CCCCC2)CC | inactive: -2.74% |  |
| COc1ccc(OC)c(CCNC(=O)Cn2sc3nc(C)cc(C)c3c2=O)c1 |  | inconclusive: 22.4 µM [inhibitor, single point] |
| Cc1ccc(/C=N/NC(=O)C2(C)CC2(Br)Br)cc1 (configuration not stated) |  | inconclusive: 5.62 µM [inhibitor, full curve] |
| CN1CCN(c2ccc(S(=O)(=O)N3CCCCC3)cc2NC(=O)CCc2ccccc2)CC1 | inactive: 205% |  |
| CC(C)CCNC(=O)Cc1ccc(Nc2nc(=S)[nH]c3ccccc23)cc1 |  | active: 15.8 µM |
| CCOC(=O)c1c(NC(=O)CN2CCCCC2)sc(C)c1C | inactive: -0.131% |  |
| O=C(c1ccco1)N1CCN(c2cc(=O)n(-c3ccc(Cl)cc3)c(=O)[nH]2)CC1 |  | active: 44.7 µM |
| Cc1cc(C)c(C(=O)/C=C/c2ccco2)c(=O)[nH]1 | inactive: -16% |  |
| Cc1cccc(NC(=O)/C(C#N)=C/c2cn(CC(=O)NCc3ccco3)c3ccccc23)c1C |  | active: 14.1 µM |
| CCOC(=O)COc1cccc2c(=O)n(CC(=O)N3CCCc4ccccc43)ccc12 |  | inconclusive: 11.2 µM [inhibitor, partial curve, poor fit] |
| CC(C)CC(C(=O)Nc1oc(-c2ccccc2)c(-c2ccccc2)c1C#N)N1C(=O)c2ccccc2C1=O (configuration not stated) |  | inconclusive: 10 µM [inhibitor, partial curve] |
| Cc1cccc(NC(=O)C(=O)NCCCc2ccccc2)c1 | inactive: -22.3% |  |
| Cc1csc(CNc2ncnc3ccc(-c4ccoc4)cc23)c1 |  | inconclusive: 20 µM [inhibitor, partial curve] |
| O=C1/C(=C\c2ccsc2)NC(=S)N1c1ccccc1 |  | inconclusive: 4.47 µM [inhibitor, full curve, poor fit] |
| COCCn1c(C)cc(C(=O)CSc2nc(C)c(C)c(C)n2)c1C | inactive: 43.9% |  |
| CCn1cnnc1SCC(=O)c1c(N)n(C2CC2)c(=O)[nH]c1=O | inactive: -9.32% |  |
| O=C(Nc1ccccc1Cl)C1CCN(Cc2cnn(-c3ccccc3)c2-n2cccc2)CC1 | inactive: 120% |  |
| O=C(NNC(=O)C1[C@H]2CCCC[C@@H]12)Nc1cccc2ccccc12 (some centres not stated) | inactive: -26.6% |  |
| O=S(=O)(N/N=C/c1ccc(N2CCOCC2)cc1)c1ccc(Br)cc1 |  | active: 11.2 µM |
| COc1ccc(Cc2nnc(NS(=O)(=O)c3ccc([N+](=O)[O-])cc3)s2)cc1 |  | inconclusive: 39.8 µM [inhibitor, single point] |
| CCN1CCc2c(sc(NC(=S)NC(=O)c3ccc(Cl)cc3)c2C(N)=O)C1 | inactive: 41.8% |  |

| SMILES | activity change, negative = inhibition | Potency |
| --- | --- | --- |
| Cc1ccc(C(=O)NCCCNC(=O)c2ccccc2F)cn1 | inactive: -7.73% |  |
| O=C(NCc1ccco1)c1cc2c(s1)CSC2 |  | inconclusive: 20 µM [inhibitor, partial curve, poor fit] |
| COc1ccc(/C=N/NC(=S)Nc2ccccc2)cc1COc1ccc(F)cc1F |  | active: 17.8 µM |
| CC(C)(C)c1cc(CCC(=O)NNC(=S)NC(=O)c2ccccc2)cc(C(C)(C)C)c1O |  | active: 1.58 µM |
| C/C(=N\Nc1ccc(Cl)c(Cl)c1)c1ccc(-n2ccnc2)cc1 |  | active: 14.1 µM |
| COC(=O)C1=Nc2ccccc2/C1=C\c1c(O)n(-c2ccc(Br)cc2)c(=O)[nH]c1=O |  | inconclusive: 10 µM [inhibitor, partial curve] |
| COc1ccc(-c2nn(-c3ccccc3)cc2/C=N/N2C(=O)CSC2=S)cc1 |  | inconclusive: 15.8 µM [inhibitor, partial curve] |
| O=C1NC2(CCCCC2)C(=O)N1Cc1ccc([N+](=O)[O-])cc1 |  | inconclusive: 7.94 µM [inhibitor, full curve, poor fit] |
| CCOC(=O)c1c(NC(=O)C(=O)N/N=C/c2ccc(O)c(OC)c2)sc2c1CCCCC2 |  | inconclusive: 3.98 µM [inhibitor, single point] |
| CN(c1ccc(OCC(=O)OCC(=O)Nc2cccc([N+](=O)[O-])c2)cc1)S(=O)(=O)c1ccc(F)cc1 |  | inconclusive: 3.16 µM [inhibitor, single point] |
| O=C(Nc1cccc(NC(=O)c2ccco2)c1)c1ccc2c(c1)OCO2 |  | active: 11.2 µM |
| COc1cc(NS(=O)(=O)c2ccc(NC(=O)COc3cccc(C)c3)cc2)nc(OC)n1 |  | inconclusive: 12.6 µM [inhibitor, partial curve] |
| O=C(N/N=C/c1cc([N+](=O)[O-])ccc1O)c1cccc2cc[nH]c12 |  | inconclusive: 31.6 µM [inhibitor, partial curve] |
| O=C(Nc1ccc2[nH]c(=S)sc2c1)Nc1ccccc1F |  | inconclusive: 15.8 µM [inhibitor, partial curve] |
| CCn1c2ccccc2c2cc(NC(=O)COC(=O)c3ccc(O)cc3)ccc21 |  | inconclusive: 28.2 µM [inhibitor, single point] |
| Cc1cc(-n2c(SCC(=O)Nc3ccc(Br)cc3)nc3n[nH]c(C)c3c2=N)ccc1Cl |  | inconclusive: 3.55 µM [inhibitor, full curve, poor fit] |
| CCOC(=O)c1oc2ccccc2c1NC(=O)c1ccc(Cl)s1 |  | active: 7.08 µM |
| CSc1ccccc1C(=O)C1CCCN(C(=O)CCc2cccnc2)C1 (configuration not stated) | inactive: -3.72% |  |
| COc1ccc(C)cc1NC(=O)CSc1ccc(Cl)cc1 |  | inconclusive: 35.5 µM [inhibitor, single point] |
| CSc1nc(-c2ccc(N(C)C)cc2)c(C#N)c(=O)n1C | inactive: -1.92% |  |
| CC(C)(C)C(=O)Nc1nc2c(s1)COc1ccccc1-2 |  | active: 0.708 µM |
| Cc1cccn2c(=O)nc(SCC(=O)NCCc3ccccc3)nc12 |  | inconclusive: 39.8 µM [inhibitor, single point] |
| O=C(CC1CCCC1)NCCS(=O)(=O)N1CCN(c2ccc(F)cc2)CC1 | inactive: -9.73% |  |
| CCOC(=O)C(C(=O)Nc1ccc(C)cc1)C1CCCCC1 (configuration not stated) | inactive: -1.27% |  |

| SMILES | activity change, negative = inhibition | Potency |
| --- | --- | --- |
| Cc1cnc(C(=O)OCC(=O)c2ccc(C3CCCCC3)cc2)cn1 |  | inconclusive: 22.4 µM [inhibitor, single point] |
| O=C(Nc1nc(-c2ccc(Cl)s2)cs1)c1cccs1 |  | inconclusive: 28.2 µM [inhibitor, single point] |
| O=C(O)c1ccc2c(c1)C(=O)N(c1ccc(Cl)cn1)C2=O |  | active: 0.631 µM |
| Cc1ccc(CCNC(=O)C2CCN(S(=O)(=O)c3c(C)nn(C)c3C)CC2)cc1 |  | active: 2.51 µM |
| CCc1ccc(-c2nc(SCC(=O)NC3CC3)n[nH]2)cc1 |  | inconclusive: 28.2 µM [inhibitor, single point] |
| CC1CCCN(Cc2cnc(Cl)s2)C1 (configuration not stated) |  | inconclusive: 1.12 µM [inhibitor, partial curve, poor fit] |
| COc1cccc(-c2cc(C(=O)Nc3ccc([N+](=O)[O-])cn3)c3ccccc3n2)c1 |  | inconclusive: 3.16 µM [inhibitor, full curve] |
| NC(=O)c1ccc(SCC(=O)OCC(=O)N2CCN(C(=O)c3ccco3)CC2)c([N+](=O)[O-])c1 |  | inconclusive: 35.5 µM [inhibitor, single point] |
| CC1(C)Cc2noc(N)c2C(C)(C)N1OC(=O)c1ccccc1 |  | inconclusive: 6.31 µM [inhibitor, single point] |
| O=c1cc2oc3cc(O)c(O)cc3c(-c3ccccc3[N+](=O)[O-])c-2cc1O |  | active: 1.12 µM |
| CC1CCCCN1CC(O)COCc1ccc(Cl)cc1 (configuration not stated) | inactive: 18.3% |  |
| CCCCCc1nc2ccccc2c(=O)n1-c1ccccc1[N+](=O)[O-] | inactive: -2.23% |  |
| CC(C)(C)NC(=O)C(c1ccco1)N(C(=O)Cn1nnc(-c2ccc(F)cc2)n1)c1cccc(F)c1 (configuration not stated) | inactive: -26.2% |  |
| COC(=O)Nc1nnc(Cc2ccccc2)s1 |  | inconclusive: 1.12 µM [inhibitor, partial curve, poor fit] |
| O=C(N/N=C/C1CC=CCC1)c1cc(Br)ccc1O (configuration not stated) |  | inconclusive: 28.2 µM [inhibitor, partial curve] |
| COCCN(C(=O)COC(=O)c1ccccc1NCc1ccco1)c1c(N)n(Cc2ccccc2)c(=O)[nH]c1=O |  | inconclusive: 39.8 µM [inhibitor, single point] |
| Cc1ccc(SCC(=O)Nc2cccc(-c3nnc(-c4ccco4)o3)c2)cc1 |  | inconclusive: 3.55 µM [inhibitor, partial curve, poor fit] |
| O=C1NN(c2ccc(Br)cc2)C(=O)/C1=C\c1ccc(O)cc1O |  | inconclusive: 22.4 µM [inhibitor, partial curve, poor fit] |
| COc1cccc(NC(=O)Nc2ccc3c(c2)N(C)C(=O)CS3)c1 |  | active: 3.16 µM |
| C=CCNC(=O)c1cc2c(=O)n3cc(C)ccc3nc2nc1NCC1CCCO1 (configuration not stated) | inactive: -16.9% |  |
| NS(=O)(=O)c1ccc(NC(=O)COC(=O)c2cn(-c3ccccc3)nc2-c2ccccc2)cc1 |  | inconclusive: 3.55 µM [inhibitor, partial curve] |
| CCOC(=O)c1c(NC(=O)CSc2nnc(-c3c[nH]c4ccccc34)n2C)sc2c1CCCC2 |  | active: 3.55 µM |
| O=C(COC(=O)C1CCC1)Nc1ncc(Cl)cc1Cl |  | inconclusive: 39.8 µM [inhibitor, single point] |
| CCOC(=O)N1CCc2c(sc3c2c(=O)n(Cc2ccccc2)c(=O)n3Cc2ccc(C)cc2)C1 |  | inconclusive: 1.12 µM [inhibitor, full curve, poor fit] |
